Source: PubChem BioAssay AID493208 (National Center for Advancing Translational Sciences (NCATS), 2011)
Hit rate of the full screen: of about 44,000 compounds, about 340 (0.77%) were called active. Another 5% or so got no clear call; they are omitted. The call rests on the fitted dose curve; in most records, active means well fitted inhibition curve with a large enough effect; inconclusive means small, poorly fitted or top-dose-only effect; inactive means flat fitted curve, though single readings scatter. Some of the results follow.

Experiment: Acumen qHTS Assay for Inhibitors of the mTORC1 Signaling Pathway in MEF (Tsc2-/-, p53-/-) Cells: Sytravon; further: nearly all actives have a fitted effect of over 50% in size
Settings: phospho-rpS6 immunofluorescence/PI, 24 h; series mostly up to 38.3 µM; activity change, negative = inhibition: at the top concentration
Summary of the method: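 Read-out: phospho-S6 Alexa-488 intensity over PI intensity per well, scored as % active cells using thresholds from rapamycin (7.5 nM) and DMSO controls. Tsc2-/-, p53-/- MEFs exposed to compound for 24 h; PI cell count recorded as viability.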
Potency means the concentration at half of the fitted maximal effect.

Row | SMILES | activity change, negative = inhibition | Potency
1 | Brc1ccc2nc(SCCOc3ccccc3)[nH]c2c1 | inactive: -18.2% | –
2 | Cc1ccc2c(c1)N(C(=O)Nc1cccc3c1CCCC3)CC(C)O2 (stereo not drawn) | inactive: -0.946% | –
3 | COC(=O)c1cc(NC(=O)c2ccc(-c3ccc(Cl)cc3Cl)o2)cc(C(=O)OC)c1 | inactive: -0.0888% | –
4 | COc1ccc(NC(=O)CCc2c(C)nc3c(-c4ccc(F)cc4)c(C)nn3c2C)c(OC)c1 | inactive: 6.61% | –
5 | Cc1ccccc1CN1CCCN(CC(=O)Nc2ccc3c(c2)OCCO3)S1(=O)=O | inactive: 3.26% | –
6 | CCOC(=O)c1noc2nc(C)n(Cc3ccc([N+](=O)[O-])cc3)c(=O)c12 | inactive: -3.15% | –
7 | Cc1cccc(Cn2nnc3c(=O)[nH]c(C4CCN(C(=O)c5ccc(F)cc5)CC4)nc32)c1 | inactive: 1.87% | –
8 | CN1CCN(C(CNC(=O)c2ccccc2)c2ccc3c(c2)OCO3)CC1 (stereo not drawn) | inactive: -0.909% | –
9 | O=C(NCc1cccc(Cl)c1)C1CCCN(c2ncnc3onc(-c4ccc(F)cc4)c23)C1 (stereo not drawn) | inactive: -0.513% | –
10 | CCn1c(=O)cc(SCC(=O)N2CCN(c3ccccc3F)CC2)c2ccccc21 | inactive: -1.88% | –
11 | CCOc1ccc(NC(=O)c2c(NC(=O)c3cccs3)sc3c2CCC(C(C)(C)C)C3)cc1 (stereo not drawn) | inactive: 2.36% | –
12 | COc1ccccc1NC(=O)c1cc(S(=O)(=O)NCCC2=CCCCC2)ccc1F | inactive: -1.04% | –
13 | CNC(=O)C1CCN(c2nc3ccccc3nc2C(F)(F)F)CC1 | inactive: -2.98% | –
14 | CCc1ccc(NC(=O)N2CCN(C(=O)c3nsc4ccccc34)CC2)cc1 | inactive: -1.46% | –
15 | O=C(Nc1ccc(C(F)(F)F)cc1)N1CCC(N2CCCCC2)CC1 | inactive: -4.94% | –
16 | Cc1ccsc1CN1CCc2nc(N3CCN(c4ccccc4F)CC3)ncc2C1 | inactive: 8.1% | –
17 | COc1cc(Cl)c(C)cc1NC(=O)c1cnc2c(-c3cccc(C)c3)c(C)nn2c1C | inactive: 0.799% | –
18 | CNC(=O)c1ccc(CSc2nc3ccncc3n2Cc2ccc(C)cc2)cc1 | inactive: -2.44% | –
19 | CCCN(C(=O)Cn1cc(S(=O)(=O)N2CCN(c3ccccc3F)CC2)c2ccccc2c1=O)c1cccc(C)c1 | inactive: -0.993% | –
20 | CC(C)CN(CCNC(=O)c1cc(-c2ccc(Cl)s2)nc2ccccc12)CC(C)C | inactive: -2.08% | –
21 | COc1cccc(CNC(=O)Cn2c(C)c3cnn(-c4ccccc4)c(=O)c3c2C)c1 | inactive: -5.98% | –
22 | CC(C)(C)C(=O)Cn1c(=O)n(-c2ccc(Cl)c(Cl)c2)c(=O)c2c3c(sc21)CCCC3 | inactive: -4.34% | –
23 | COCc1cc(C)nc2sc(C(=O)Nc3cc(C)ccc3F)c(N)c12 | inactive: 10.7% | –
24 | Cc1cc(C)cc(N2CCn3c2nc2c3c(=O)n(CCCc3ccccc3)c(=O)n2C)c1 | inactive: -6.76% | –

Row | SMILES | activity change, negative = inhibition | Potency
25 | CN(C(=O)CSc1nnc(-c2ccc([N+](=O)[O-])cc2)o1)c1ccccc1 | inactive: 3.94% | –
26 | Cc1ccc(CNC(=O)CCCn2c(=O)c3ccccc3n(Cc3ccc(Cl)cc3)c2=O)cc1 | inactive: -12.9% | –
27 | COc1ccc(CCNC(=O)Cn2cc(C(=O)c3ccc(F)cc3)c(=O)c3ccc(C)nc32)cc1OC | inactive: -15.8% | –
28 | Cc1ccc(CNC(=O)CCC(=O)N2CCSc3ccccc32)cc1 | inactive: -2.65% | –
29 | Cc1ccc(-c2nc3cc(C(C)C)ccc3o2)cc1NC(=O)c1cc([N+](=O)[O-])ccc1N1CCOCC1 | inactive: -8.38% | –
30 | COCCCNC(=O)C1CCCN(c2nn3cc(-c4ccc(C)cc4)nc3s2)C1 (stereo not drawn) | inactive: 2.28% | –
31 | Cc1cccc(-c2nc3ccccc3n3c(-c4ccccc4)c4c(=O)n(C)c(=O)n(C)c4c23)c1 | inactive: 4.42% | –
32 | O=C(Nc1ccc(F)c(Cl)c1)N1CCC(CN2CCc3ccccc3C2)CC1 | inactive: -15.4% | –
33 | CCC(C)NC(=O)CCc1c(C)nc2cc(-c3ccc(OC)cc3OC)nn2c1C (stereo not drawn) | inactive: -2.51% | –
34 | Cc1cccc(CCNC(=O)C2CCN(c3nc4ccccc4nc3C(F)(F)F)CC2)c1 | inactive: 4.9% | –
35 | Cc1ccc(-n2ncc3c(NCC(C)C)ncnc32)c(C)c1 | inactive: -12.1% | –
36 | COc1ccccc1-c1cc2nc(C)c(CCC(=O)Nc3cc(C)ccc3C)c(C)n2n1 | inactive: -6.47% | –
37 | CCc1ccc(NC(=O)Cn2cnc3sc(C)c(S(=O)(=O)N4CCN(c5ccccc5OC)CC4)c3c2=O)cc1 | inactive: 0% | –
38 | Cc1oc(-c2ccccc2F)nc1CSc1nnc(C)n2c1cc1occc12 | inactive: -12.8% | –
39 | CC(C)(C)OC(=O)N1CCC(c2c(C(=O)N3CCOCC3)cnn2-c2cccc(F)c2)CC1 | inactive: 0.931% | –
40 | Cc1ccc(C)c(NC(=O)Nc2cccc(-c3cn4cccnc4n3)c2)c1 | inactive: 10.5% | –
41 | COc1ccc(-n2nnc(-c3nc(-c4cccs4)no3)c2N)cc1 | inactive: 1.01% | –
42 | O=C(Nc1ccc(C(=O)N2CCN(c3ccccc3)CC2)cc1)c1nsc2ccccc12 | inactive: 11.2% | –
43 | CCOC(=O)c1cnc2ccc(Cl)cc2c1Nc1ccc(N2CCOCC2)cc1 | inactive: -0.272% | –
44 | CCCN(CCC)CCNC(=O)C1CCN(c2nc3ccc(CC)cc3s2)CC1 | – | active: 16.5 µM
45 | O=C(CSc1nc2c(c(=O)[nH]1)CN(Cc1ccc3c(c1)OCO3)CC2)Nc1ccc(F)c(F)c1 | inactive: -1.97% | –
46 | CCOc1ccc(CCNC(=O)c2cc3sc(CC)cc3n2C)cc1OCC | inactive: -6.32% | –
47 | Cc1ccc(S(=O)(=O)N2CCC(n3c(C)nc4cccnc43)CC2)c(C)c1 | inactive: -6.17% | –
48 | Cc1ccc(S(=O)(=O)c2cn(Cc3ccc(F)cc3)c3cc(N4CCCC4)c(F)cc3c2=O)cc1 | inactive: -1.84% | –

Row | SMILES | activity change, negative = inhibition | Potency
49 | Cc1ccc(CNC(=O)c2ccc(-c3nc(CS(=O)(=O)c4ccc(C)cc4)c(C)o3)cc2)cc1 | inactive: 1.64% | –
50 | Cc1[nH]c2ccccc2c1SCCNC(=O)c1ccccc1F | inactive: 2.89% | –
51 | CC(C)Oc1ccc(CNC(=O)Cn2ncn3nc(-c4cccs4)cc3c2=O)cc1 | inactive: -0.098% | –
52 | COC(=O)c1ccccc1-n1c(CCC(=O)O)ccc1-c1ccccc1 | inactive: -13.9% | –
53 | O=C(NCc1ccccc1Cl)c1cc2cccc3c2n1CCS3 | inactive: -10.4% | –
54 | COc1cccc(CNC(=O)c2ccc3c(c2)nc2n3CCC(C)C2)c1OC (stereo not drawn) | inactive: 1.88% | –
55 | CCOC(=O)C1CCCN(C(=O)c2[nH]c3ccccc3c2Sc2ccc(Cl)cc2)C1 (stereo not drawn) | inactive: -2.97% | –
56 | COc1ccc(C(=O)NCC(c2ccco2)S(=O)(=O)c2cccs2)cc1OC (stereo not drawn) | inactive: 1.72% | –
57 | Cc1ccnc(NS(=O)(=O)c2ccc(NC(=O)c3nc(SC(C)C)ncc3Cl)cc2)n1 | inactive: 3.11% | –
58 | Cc1cc(C)c2oc(C(=O)Nc3c(C(=O)Nc4ccccc4)oc4ccccc34)cc(=O)c2c1 | inactive: -2.89% | –
59 | CCCCn1cc(S(=O)(=O)c2ccc(Cl)cc2)c(=O)c2cc(F)c(N3CCCCC3)cc21 | inactive: -8.9% | –
60 | Cn1c(SCc2ccc(F)cc2)nc2ccc(C(=O)NCc3ccccc3)cc21 | inactive: -1.16% | –
61 | Cc1nc2ccc(S(=O)(=O)NC(C(=O)NCc3ccc(Cl)cc3)C(C)C)cc2s1 (stereo not drawn) | inactive: -26.6% | –
62 | COc1cc2c(-c3ccccc3Cl)nc3c(c(C)nn3-c3ccccc3)c2cc1OC | inactive: 6.52% | –
63 | Cc1cccc(C(=O)Nc2ccccc2C(=O)OCc2cc(=O)n3nc(C4CC4)sc3n2)c1 | inactive: -0.0585% | –
64 | CCOC(=O)c1c(-c2ccc(OC)c(OC)c2)csc1NC(=O)c1ccc(F)cc1 | inactive: 4.37% | –
65 | O=C(C1CCN(c2nc3ccccc3[nH]2)CC1)N1CCN(c2cccc(Cl)c2)CC1 | inactive: -10.2% | –
66 | COc1cccc(N2C(=O)CSC23C(=O)N(CC(=O)NCc2ccc(C)cc2)c2ccccc23)c1 (stereo not drawn) | inactive: 4.17% | –
67 | CSC1=NC2(CCN(C(=O)NC3CCCCC3)CC2)N=C1c1ccc(C(C)(C)C)cc1 | inactive: -14.6% | –
68 | CCc1ccc2occ(CC(=O)Nc3sc4c(c3C(=O)OC)CCC4)c2c1 | inactive: 0% | –
69 | COc1cccc(CNCCSc2nnnn2C)c1OCc1ccc(Cl)cc1 | inactive: -0.895% | –
70 | CCCN(CCC)CCCNC(=O)c1cn(CC)c2ccc(S(=O)(=O)N3CCc4ccccc4C3)cc2c1=O | inactive: -2.93% | –
71 | CCc1ccc(Cn2nnc(C(=O)Nc3ccc(C)cc3)c2N)cc1 | inactive: 0.96% | –
72 | CCOC(=O)c1ccc2c(c1)N(CC(=O)Nc1ccc(CC)cc1)C(=O)c1ccccc1S2 | inactive: 1.13% | –

Row | SMILES | activity change, negative = inhibition | Potency
73 | COc1cc(NC(=O)Cn2cnc3sc(C)c(S(=O)(=O)N4CCN(C)CC4)c3c2=O)cc(OC)c1OC | inactive: -1.36% | –
74 | Cc1ccc(Nc2c(-c3ccc(N4CCOCC4)cc3)nc3ncccn23)cc1C | inactive: 6.52% | –
75 | O=C(CSc1oc(-c2ccco2)nc1S(=O)(=O)c1ccccc1)c1ccc(Cl)cc1 | inactive: -3.15% | –
76 | CCOC(=O)c1ccc(NC(=O)CC2C(=O)N(c3ccccc3)C(=O)N2C2CCCCC2)cc1 (stereo not drawn) | inactive: -0.0576% | –
77 | CCOc1cccc(C(=O)Nc2ccc(NC(=O)c3ccc(Br)cc3)cc2)c1 | inactive: -5.13% | –
78 | CCN(c1ccc(C)cc1C)S(=O)(=O)c1nnc(NC(=O)c2ccccc2OC)s1 | inactive: 3.59% | –
79 | CCOC(=O)c1oc2ccc(S(=O)(=O)n3nc(-c4cc(OCC)c(OCC)c(OCC)c4)cc3N)cc2c1C | inactive: -1.77% | –
80 | CCc1ccc(N2CCn3c2nc2c3c(=O)n(CCCc3ccccc3)c(=O)n2C)cc1 | inactive: 0.577% | –
81 | CCCc1cnc2c(c1SCC(=O)Nc1cccc(C)c1C)c(=O)n(C)c(=O)n2C | inactive: -13% | –
82 | CCOc1ccc(-c2nonc2NC(=O)COc2ccccc2)cc1 | inactive: -2.47% | –
83 | CCOC(=O)c1ccc(NC(=O)c2c(NCc3cc(OC)c(OC)cc3OC)sc3c2CCCC3)cc1 | inactive: -7.88% | –
84 | COc1ccc(-n2cc(-c3ccccc3)c3c(NCCc4ccc(OC)c(OC)c4)ncnc32)cc1 | inactive: 7.19% | –
85 | CCN1CCN(c2cc3c(cc2F)c(=O)c(S(=O)(=O)c2cc(C)cc(C)c2)cn3CC)CC1 | inactive: -7.81% | –
86 | O=C(NCCCCc1ccccc1)c1nn(-c2ccccc2)nc1CO | inactive: -1.72% | –
87 | CC1=C(C(=O)OCC2CCCCC2)C(c2cccc(F)c2F)CC(=O)N1 (stereo not drawn) | inactive: -0.27% | –
88 | COc1ccc(NC(=O)Cn2nnc(C(=O)Nc3ccc(C)c(F)c3)c2N)cc1Cl | inactive: -4.17% | –
89 | COc1ccc(CNC(=O)CN(c2ccc(OC)cc2)S(=O)(=O)c2c(C)[nH]c(=O)[nH]c2=O)cc1 | inactive: -17.8% | –
90 | Cc1ccc(-n2c(-c3ccco3)nc3c(cnn3-c3ccc(C)cc3)c2=O)cc1 | inactive: 3.6% | –
91 | O=C(Cc1ccccc1F)N1CCC(c2nc3c(nnn3Cc3cccc(Cl)c3)c(=O)[nH]2)CC1 | inactive: -3.48% | –
92 | Cc1cc(C)cc(OCCn2c(CCNC(=O)C3CCCCC3)nc3ccccc32)c1 | inactive: -1.15% | –
93 | CCOc1ccc(NC(=O)c2c(NC(=O)c3ccccc3Br)sc3c2CCC(C)C3)cc1 (stereo not drawn) | inactive: 8.71% | –
